Source: the supplement of paper PMC3724861
The other results are listed elsewhere or left out.

What follows are sequences tested on T1, Caupolican (Caup) homeodomain DNA-binding domain (assay: PBM E-score (8-mer, recovered from the published 9-mer minima) (E-score (dimensionless, -0.5 to 0.5)); Drosophila protein; higher = stronger relative binding preference, active = 0.31 or more).
T1 sequence: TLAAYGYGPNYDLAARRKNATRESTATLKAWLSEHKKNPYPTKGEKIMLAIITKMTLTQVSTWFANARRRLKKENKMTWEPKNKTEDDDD
Method in brief: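 An enrichment score, with higher meaning stronger, expresses relative binding preference for each short DNA word. The protein used was Caup's homeodomain DNA-binding domain (residues 214-303), produced by in vitro transcription and translation and tested at 100 nM on custom-designed protein binding microarrays. The 8-mer values were recovered from published 9-mer scores, each equal to the lower of its two constituent 8-mer scores.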
For GTCTGAAC, the “PBM E-score” value was inactive: 0.0504. ACGTTTTC was tested, and the “PBM E-score” value was inactive: 0.0344. With AAGGCGAA the “PBM E-score” value was inactive: -0.165. For GTCCGGCA, the “PBM E-score” value was inactive: -0.0821. For TCAAGTCA, the “PBM E-score” value was inactive: 0.0287. With AAAGGCGC the “PBM E-score” value was inactive: -0.105. With CTCGCACC the “PBM E-score” value was inactive: -0.0853. With TCGTGAGA the “PBM E-score” value was inactive: -0.102. For AACCAGGC, the “PBM E-score” value was inactive: 0.03. In the case of AGACTGGG, the “PBM E-score” value was inactive: -0.111. ACACCGGG was tested, and the “PBM E-score” value was inactive: -0.0438. ATAGTTTA was tested, and the “PBM E-score” value was inactive: 0.162. In the case of CTAGACGA, the “PBM E-score” value was inactive: -0.144. With GCTTGAGA the “PBM E-score” value was inactive: -0.116. AGTACGGC was tested, and the “PBM E-score” value was inactive: -0.082. AAGTTTAC was tested, and the “PBM E-score” value was inactive: 0.134. For CTATGGAG, the “PBM E-score” value was inactive: -0.0365. With TATTCTGA the “PBM E-score” value was inactive: 0.105. With AGACTGCG the “PBM E-score” value was inactive: -0.129. ACTCGAAC was tested, and the “PBM E-score” value was inactive: 0.122. GATGACCC was tested, and the “PBM E-score” value was inactive: -0.0864. With ATACCTAC the “PBM E-score” value was inactive: 0.112. With GAATTGCA the “PBM E-score” value was inactive: 0.0373. With CCAGCTCC the “PBM E-score” value was inactive: -0.13. For AAGCAGTC, the “PBM E-score” value was inactive: -0.101. For TATCCTAA, the “PBM E-score” value was inactive: 0.011. With ACACCGGC the “PBM E-score” value was inactive: -0.0249. CGACTGTA was tested, and the “PBM E-score” value was inactive: -0.0324. With AGTATGTA the “PBM E-score” value was inactive: 0.284. For ATCAAGTA, the “PBM E-score” value was inactive: 0.177. TAGTAAAA was tested, and the “PBM E-score” value was inactive: 0.202. ACAATCTG was tested, and the “PBM E-score” value was ≥ 0.179. In the case of CCATACGA, the “PBM E-score” value was inactive: 0.0137. With TAGTGCCA the “PBM E-score” value was inactive: -0.0266. In the case of ACGCTAGA, the “PBM E-score” value was inactive: -0.0749. For ACCGAGGA, the “PBM E-score” value was ≥ -0.00578. With CTTCACTA the “PBM E-score” value was inactive: 0.0292. GGGAAAGA was tested, and the “PBM E-score” value was inactive: -0.104. GGGTGCAA was tested, and the “PBM E-score” value was inactive: -0.0364. With TAAAGATA the “PBM E-score” value was inactive: 0.112. In the case of AAAATGCG, the “PBM E-score” value was inactive: -0.0261. For CAAGGCGC, the “PBM E-score” value was inactive: -0.105. In the case of AAAGACTT, the “PBM E-score” value was inactive: 0.036. In the case of CTGAGATA, the “PBM E-score” value was inactive: 0.0481. With ACTGAGCT the “PBM E-score” value was inactive: -0.101. In the case of GTCAATGA, the “PBM E-score” value was inactive: 0.0907. In the case of AAGCATAC, the “PBM E-score” value was inactive: 0.176. For ACTGCCAC, the “PBM E-score” value was inactive: -0.0612. AGTCGTCC was tested, and the “PBM E-score” value was inactive: -0.0214. In the case of ACTTGGTC, the “PBM E-score” value was inactive: -0.0293. With ACTATGGG the “PBM E-score” value was inactive: -0.0727. In the case of CCGCCACG, the “PBM E-score” value was inactive: -0.192. With CACCGTTC the “PBM E-score” value was inactive: 0.0792. In the case of GTTTTCAA, the “PBM E-score” value was inactive: 0.161. GGAGCATA was tested, and the “PBM E-score” value was inactive: 0.0112. For ACATGTCG, the “PBM E-score” value was active: 0.416. With ATCATGGC the “PBM E-score” value was inactive: -0.0613. For GGCGCTGA, the “PBM E-score” value was inactive: -0.13. For TCCACGGA, the “PBM E-score” value was inactive: -0.034. ATATGCCC was tested, and the “PBM E-score” value was inactive: -0.0767. With AATCGTTA the “PBM E-score” value was inactive: 0.104. CGTGATCA was tested, and the “PBM E-score” value was inactive: 0.13. With AGGAACTA the “PBM E-score” value was inactive: 0.0102. With ATAGGAAG the “PBM E-score” value was inactive: -0.027. ATGCCAGG was tested, and the “PBM E-score” value was inactive: -0.124. With CGGTCCAA the “PBM E-score” value was inactive: -0.123. In the case of ACTGAGGG, the “PBM E-score” value was inactive: -0.149. CTATCATC was tested, and the “PBM E-score” value was inactive: 0.011. In the case of AGATGTAA, the “PBM E-score” value was active: 0.336. With CCCCTGAG the “PBM E-score” value was inactive: -0.149. In the case of CATACAGG, the “PBM E-score” value was inactive: 0.152. For ATATCAAG, the “PBM E-score” value was inactive: 0.172. ATAAAGCA was tested, and the “PBM E-score” value was inactive: 0.0727. TCGATACA was tested, and the “PBM E-score” value was inactive: 0.24. In the case of ATCTGCCC, the “PBM E-score” value was inactive: -0.0524. In the case of AAACTTAG, the “PBM E-score” value was inactive: -0.0358. In the case of CGGAAAGC, the “PBM E-score” value was inactive: -0.125. CATAGATA was tested, and the “PBM E-score” value was inactive: 0.132. With TTCGCGAA the “PBM E-score” value was inactive: 0.0164. GGCGTACC was tested, and the “PBM E-score” value was inactive: -0.146. With AAGGTTCC the “PBM E-score” value was inactive: -0.0592. ATCGCACC was tested, and the “PBM E-score” value was inactive: -0.0473. For CCAAGTGA, the “PBM E-score” value was inactive: -0.0221. GTTTTGAA was tested, and the “PBM E-score” value was inactive: 0.132. For GGCGGTAA, the “PBM E-score” value was inactive: -0.0226. With AATGCGGG the “PBM E-score” value was inactive: -0.0824. For CAGACATC, the “PBM E-score” value was inactive: 0.185. With ATGGAAGC the “PBM E-score” value was inactive: -0.0976. In the case of ATTAGGAG, the “PBM E-score” value was inactive: 0.0741. In the case of ACAGTGAT, the “PBM E-score” value was inactive: 0.15. CCGATAAC was tested, and the “PBM E-score” value was inactive: 0.0305. For CCTGATAA, the “PBM E-score” value was inactive: 0.0333. With CCCCTAAA the “PBM E-score” value was inactive: -0.166. GGATCGCA was tested, and the “PBM E-score” value was inactive: 0.00822. In the case of CATGGAGA, the “PBM E-score” value was inactive: 0.0569. For CCAGGAGA, the “PBM E-score” value was inactive: -0.112. GGGTCCGA was tested, and the “PBM E-score” value was inactive: -0.151. In the case of TAACGGTA, the “PBM E-score” value was inactive: 0.0902. With TACTTTGA the “PBM E-score” value was inactive: 0.0728. For CATCGCTC, the “PBM E-score” value was inactive: -0.157. In the case of CCTAACAA, the “PBM E-score” value was inactive: 0.196. For GTATTAAA, the “PBM E-score” value was inactive: 0.161. CAGGCTGC was tested, and the “PBM E-score” value was inactive: -0.0833. CCTTCAAA was tested, and the “PBM E-score” value was inactive: -0.0826. With ATTCCCAG the “PBM E-score” value was inactive: 0.0161. AAGTAAAG was tested, and the “PBM E-score” value was inactive: -0.0403. For TAGGTAGA, the “PBM E-score” value was inactive: -0.0179. In the case of TTGTCAAA, the “PBM E-score” value was active: 0.316. For GTACTCAC, the “PBM E-score” value was inactive: 0.0591. For AACCTTCG, the “PBM E-score” value was inactive: -0.0507. In the case of AACCGTCA, the “PBM E-score” value was inactive: -0.0665. In the case of CTGGCGAC, the “PBM E-score” value was inactive: -0.142.
